# The supplement of paper PMC8728848
# This is one part of the list.
# B1: FBG4 (Homo sapiens), Q96EF6 (protein)
# chain: MGARLSRRRLPADPSLALDALPPELLVQVLSHVPPRSLVTRCRPVCRAWRDIVDGPTVWLLQLARDRSAEGRALYAVAQRCLPSNEDKEEFPLCALARYCLRAPFGRNLIFNSCGEQGFRGWEVEHGGNGWAIEKNLTPVPGAPSQTCFVTSFEWCSKRQLVDLVMEGVWQELLDSAQIEICVADWWGARENCGCVYQLRVRLLDVYEKEVVKFSASPDPVLQWTERGCRQVSHVFTNFGKGIRYVSFEQYGRDVSSWVGHYGALVTHSSVRVRIRLS
# Key:
# Experiment in all cases: glycan array binding signal (z-score within array); higher = stronger binding
# Conditions in all cases: glycan notation: IUPAC condensed, linker removed
# Fuc(a1-2)Gal = target: Fuc(a1-2)Gal
# Method in brief: (§1)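 The binding signal is a Z-score computed within each array. Data were drawn from 3228 arrays in the Consortium for Functional Glycomics database, restricted to those with a known protein sequence. Scores were averaged over arrays of the same protein sequence at different concentrations or buffers, and over linkers, and negative values can be taken as non-binding.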
# Fuc(a1-2)Gal(b1-3)GalNAc = target: Fuc(a1-2)Gal(b1-3)GalNAc
# Method in brief: as §1
# [1] = target: Fuc(a1-2)Gal(b1-3)GalNAc(b1-3)Gal
# Method in brief: as §1
# [2] = target: Fuc(a1-2)Gal(b1-3)GalNAc(b1-3)Gal(a1-4)Gal(b1-4)Glc
# Method in brief: as §1
# [3] = target: Fuc(a1-2)Gal(b1-3)GalNAc(b1-3)Gal(b1-4)Glc
# Method in brief: as §1
# [4] = target: Fuc(a1-2)Gal(b1-3)GalNAc(b1-4)[Neu5Ac(a2-3)]Gal(b1-4)Glc
# Method in brief: as §1
# [5] = target: Fuc(a1-2)Gal(b1-3)[Fuc(a1-4)]GlcNAc
# Method in brief: as §1
# Fuc(a1-2)Gal(b1-4)Glc = target: Fuc(a1-2)Gal(b1-4)Glc
# Method in brief: as §1
# Fuc(a1-2)Gal(b1-4)Glc6S = target: Fuc(a1-2)Gal(b1-4)Glc6S
# Method in brief: as §1
# Fuc(a1-2)Gal(b1-4)GlcNAc = target: Fuc(a1-2)Gal(b1-4)GlcNAc
# Method in brief: as §1
# [6] = target: Fuc(a1-2)Gal(b1-4)GlcNAc(b1-3)Gal(b1-4)GlcNAc
# Method in brief: as §1
# [7] = target: Fuc(a1-2)Gal(b1-4)GlcNAc(b1-3)Gal(b1-4)GlcNAc(b1-3)Gal(b1-4)GlcNAc
# Method in brief: as §1
# [8] = target: Fuc(a1-2)Gal(b1-4)GlcNAc6S
# Method in brief: as §1
# [9] = target: Fuc(a1-2)Gal(b1-4)[Fuc(a1-3)]GalNAc(b1-3)Gal(b1-4)[Fuc(a1-3)]GlcNAc
# Method in brief: as §1
# [10] = target: Fuc(a1-2)Gal(b1-4)[Fuc(a1-3)]GalNAc(b1-3)Gal(b1-4)[Fuc(a1-3)]GlcNAc(b1-3)Gal(b1-4)[Fuc(a1-3)]GalNAc
# Method in brief: as §1
# [11] = target: Fuc(a1-2)Gal(b1-4)[Fuc(a1-3)]GlcNAc
# Method in brief: as §1
# Fuc(a1-2)Gal6S(b1-4)Glc = target: Fuc(a1-2)Gal6S(b1-4)Glc
# Method in brief: as §1
# [12] = target: Fuc(a1-2)Gal6S(b1-4)Glc6S
# Method in brief: as §1
# [13] = target: Fuc(a1-2)Gal6S(b1-4)GlcNAc
# Method in brief: as §1
# Fuc(a1-2)GlcNAc = target: Fuc(a1-2)GlcNAc
# Method in brief: as §1
# Fuc(a1-2)[Gal(a1-3)]Gal = target: Fuc(a1-2)[Gal(a1-3)]Gal
# Method in brief: as §1
# [14] = target: Fuc(a1-2)[Gal(a1-3)]Gal(b1-3)GlcNAc
# Method in brief: as §1
# [15] = target: Fuc(a1-2)[Gal(a1-3)]Gal(b1-4)Glc
# Method in brief: as §1
# [16] = target: Fuc(a1-2)[Gal(a1-3)]Gal(b1-4)GlcNAc
# Method in brief: as §1
# [17] = target: Fuc(a1-2)[Gal(a1-3)]Gal(b1-4)[Fuc(a1-3)]GlcNAc
# Method in brief: as §1
# [18] = target: Fuc(a1-2)[Gal(a1-4)]Gal(b1-4)GalNAc
# Method in brief: as §1
# [19] = target: Fuc(a1-2)[GalNAc(a1-3)]Gal
# Method in brief: as §1
# [20] = target: Fuc(a1-2)[GalNAc(a1-3)]Gal(b1-3)GlcNAc
# Method in brief: as §1
# [21] = target: Fuc(a1-2)[GalNAc(a1-3)]Gal(b1-4)Glc
# Method in brief: as §1
# [22] = target: Fuc(a1-2)[GalNAc(a1-3)]Gal(b1-4)GlcNAc
# Method in brief: as §1
# [23] = target: Fuc(a1-2)[GalNAc(a1-3)]Gal(b1-4)[Fuc(a1-3)]GlcNAc
# Method in brief: as §1
# [24] = target: Fuc(a1-2)[GalNAc(a1-4)]Gal(b1-4)GlcNAc
# Method in brief: as §1
# Fuc(a1-3)GlcNAc = target: Fuc(a1-3)GlcNAc
# Method in brief: as §1
# [25] = target: Fuc(a1-3)[Gal(b1-4)]Glc6S
# Method in brief: as §1
# [26] = target: Fuc(a1-3)[Gal(b1-4)]GlcNAc
# Method in brief: as §1
# [27] = target: Fuc(a1-3)[Gal(b1-4)]GlcNAc(b1-3)Gal(b1-3)[Fuc(a1-4)]GlcNAc
# Method in brief: as §1
# [28] = target: Fuc(a1-3)[Gal(b1-4)]GlcNAc(b1-4)Gal(b1-4)[Fuc(a1-3)]GlcNAc
# Method in brief: as §1
# [29] = target: Fuc(a1-3)[Gal(b1-4)]GlcNAc(b1-4)Gal(b1-4)[Fuc(a1-3)]GlcNAc(b1-4)Gal(b1-4)[Fuc(a1-3)]GlcNAc
# Method in brief: as §1
# [30] = target: Fuc(a1-3)[Gal(b1-4)]GlcNAc6S
# Method in brief: as §1
# [31] = target: Fuc(a1-3)[Gal3S(b1-4)]Glc
# Method in brief: as §1
# [32] = target: Fuc(a1-3)[Gal3S(b1-4)]Glc6S
# Method in brief: as §1
# [33] = target: Fuc(a1-3)[Gal3S(b1-4)]GlcNAc
# Method in brief: as §1
# [34] = target: Fuc(a1-3)[Gal3S(b1-4)]GlcNAc6S
# Method in brief: as §1
# [35] = target: Fuc(a1-3)[GalNAc(b1-4)]Gal(b1-4)GlcNAc
# Method in brief: as §1
# Fuc(a1-4)GlcNAc = target: Fuc(a1-4)GlcNAc
# Method in brief: as §1
# Fuc(b1-3)GlcNAc = target: Fuc(b1-3)GlcNAc
# Method in brief: as §1
# Gal(a1-2)Gal = target: Gal(a1-2)Gal
# Method in brief: as §1
# Gal(a1-3)Gal = target: Gal(a1-3)Gal
# Method in brief: as §1
# Gal(a1-3)Gal(b1-3)Glc = target: Gal(a1-3)Gal(b1-3)Glc
# Method in brief: as §1
# Gal(a1-3)Gal(b1-3)GlcNAc = target: Gal(a1-3)Gal(b1-3)GlcNAc
# Method in brief: as §1
# Gal(a1-3)Gal(b1-4)GlcNAc = target: Gal(a1-3)Gal(b1-4)GlcNAc
# Method in brief: as §1
# [36] = target: Gal(a1-3)Gal(b1-4)[Fuc(a1-3)]GalNAc
# Method in brief: as §1
# Gal(a1-3)GlcNAc = target: Gal(a1-3)GlcNAc
# Method in brief: as §1
# [37] = target: Gal(a1-3)[Gal(a1-4)]Gal(b1-4)GlcNAc
# Method in brief: as §1
# Gal(a1-4)Gal(b1-4)Gal = target: Gal(a1-4)Gal(b1-4)Gal
# Method in brief: as §1
# Gal(a1-4)Gal(b1-4)GalNAc = target: Gal(a1-4)Gal(b1-4)GalNAc
# Method in brief: as §1
# Gal(a1-4)GlcNAc = target: Gal(a1-4)GlcNAc
# Method in brief: as §1
# Gal(a1-6)Glc = target: Gal(a1-6)Glc
# Method in brief: as §1
# Gal(b1-2)Gal = target: Gal(b1-2)Gal
# Method in brief: as §1
# Gal(b1-3)Gal = target: Gal(b1-3)Gal
# Method in brief: as §1
binder,measurement,setting,value
B1,glycan array binding signal (z-score),Fuc(a1-2)Gal,-0.503
same,glycan array binding signal (z-score),Fuc(a1-2)Gal(b1-3)GalNAc,-0.185
same,glycan array binding signal (z-score),[1],1.54
same,glycan array binding signal (z-score),[2],-0.097
same,glycan array binding signal (z-score),[3],-0.32
same,glycan array binding signal (z-score),[4],0.24
same,glycan array binding signal (z-score),[5],-0.22
same,glycan array binding signal (z-score),Fuc(a1-2)Gal(b1-4)Glc,-0.442
same,glycan array binding signal (z-score),Fuc(a1-2)Gal(b1-4)Glc6S,-0.413
same,glycan array binding signal (z-score),Fuc(a1-2)Gal(b1-4)GlcNAc,-0.263
same,glycan array binding signal (z-score),[6],-0.136
same,glycan array binding signal (z-score),[7],0.051
same,glycan array binding signal (z-score),[8],-0.263
same,glycan array binding signal (z-score),[9],0.146
same,glycan array binding signal (z-score),[10],-0.084
same,glycan array binding signal (z-score),[11],0.062
same,glycan array binding signal (z-score),Fuc(a1-2)Gal6S(b1-4)Glc,-0.489
same,glycan array binding signal (z-score),[12],0.466
same,glycan array binding signal (z-score),[13],-0.475
same,glycan array binding signal (z-score),Fuc(a1-2)GlcNAc,-0.538
same,glycan array binding signal (z-score),Fuc(a1-2)[Gal(a1-3)]Gal,-0.532
same,glycan array binding signal (z-score),[14],-0.347
same,glycan array binding signal (z-score),[15],-0.492
same,glycan array binding signal (z-score),[16],-0.135
same,glycan array binding signal (z-score),[17],-0.137
same,glycan array binding signal (z-score),[18],-0.227
same,glycan array binding signal (z-score),[19],-0.41
same,glycan array binding signal (z-score),[20],-0.102
same,glycan array binding signal (z-score),[21],0.01
same,glycan array binding signal (z-score),[22],-0.109
same,glycan array binding signal (z-score),[23],-0.043
same,glycan array binding signal (z-score),[24],-0.49
same,glycan array binding signal (z-score),Fuc(a1-3)GlcNAc,-0.513
same,glycan array binding signal (z-score),[25],-0.208
same,glycan array binding signal (z-score),[26],-0.467
same,glycan array binding signal (z-score),[27],-0.331
same,glycan array binding signal (z-score),[28],-0.228
same,glycan array binding signal (z-score),[29],-0.332
same,glycan array binding signal (z-score),[30],-0.271
same,glycan array binding signal (z-score),[31],-0.408
same,glycan array binding signal (z-score),[32],0.064
same,glycan array binding signal (z-score),[33],-0.301
same,glycan array binding signal (z-score),[34],0.459
same,glycan array binding signal (z-score),[35],-0.158
same,glycan array binding signal (z-score),Fuc(a1-4)GlcNAc,-0.394
same,glycan array binding signal (z-score),Fuc(b1-3)GlcNAc,-0.395
same,glycan array binding signal (z-score),Gal(a1-2)Gal,-0.37
same,glycan array binding signal (z-score),Gal(a1-3)Gal,-0.408
same,glycan array binding signal (z-score),Gal(a1-3)Gal(b1-3)Glc,-0.259
same,glycan array binding signal (z-score),Gal(a1-3)Gal(b1-3)GlcNAc,-0.25
same,glycan array binding signal (z-score),Gal(a1-3)Gal(b1-4)GlcNAc,-0.221
same,glycan array binding signal (z-score),[36],-0.256
same,glycan array binding signal (z-score),Gal(a1-3)GlcNAc,-0.551
same,glycan array binding signal (z-score),[37],-0.397
same,glycan array binding signal (z-score),Gal(a1-4)Gal(b1-4)Gal,-0.039
same,glycan array binding signal (z-score),Gal(a1-4)Gal(b1-4)GalNAc,-0.389
same,glycan array binding signal (z-score),Gal(a1-4)GlcNAc,-0.495
same,glycan array binding signal (z-score),Gal(a1-6)Glc,1.59
same,glycan array binding signal (z-score),Gal(b1-2)Gal,-0.007
same,glycan array binding signal (z-score),Gal(b1-3)Gal,-0.536
